Results: PubChem BioAssay AID504466 (National Center for Advancing Translational Sciences (NCATS), 2011)
Screen size: about 330,000 compounds; about 4,200 (1.3%) were called active. The inconclusive results got no clear call from the source; some entries with a clear call stand among them for comparison. Calls come from the whole dose curve; as a rule, active = well fitted activation curve with a large enough effect; inconclusive = small, poorly fitted or top-dose-only effect; inactive = no such curve, though single readings can be large or run the other way. Where the call is inconclusive, the potency comes from a doubtful curve fit.

assay: qHTS screen for small molecules that induce genotoxicity in human embryonic kidney (HEK293T) cells expressing luciferase-tagged ELG1; settings: HEK293T ELG1-luciferase reporter, luminescence, 16 h; series mostly up to 46 µM; activity change, positive = activation: at the top concentration; note: nearly all actives have a fitted effect of over 60% in size; for activity change, positive = activation: % of control where 0% means no effect
Procedure, shortened: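 Step 1: seed 2,000 HEK293T ELG1-luciferase cells per well. Step 2: add compound or DMSO, incubate 16 hr at 37 °C. Step 3: ONE-Glo, 30 min at room temperature, read luminescence.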
Potency is the fitted concentration of half-maximal effect; tags give direction and shape of the fitted curve.

SMILES | Potency | activity change, positive = activation
c1ccc(CC2CCN(Cc3nc(-c4ccccc4)no3)CC2)cc1 | inconclusive: 12.6 µM [activator, partial curve, poor fit] | 
C/C(=N\Nc1ccc2nncn2n1)c1ccco1 |  | inactive: 3.87%
O=C(Nc1cnn(Cc2ccccc2)c1)c1nc2ncccn2n1 | inconclusive: 10.3 µM [activator, partial curve, poor fit] | 
Clc1ccc(/C=N/Nc2nc(Cl)nc3ccccc23)cc1 | inconclusive: 32.6 µM [activator, partial curve, poor fit] | 
COc1cccc(/C=C2\SC(=S)N(N3CCOCC3)C2=O)c1OC | inconclusive: 18.4 µM [activator, partial curve, poor fit] | 
O=c1c2c(nc3cc(-c4ccc(F)cc4)[nH]n13)CCCC2 | active: 2.31 µM | 
COc1cc(N=Nc2ccc3ccccc3c2)ccc1O | active: 11.6 µM | 
Cc1oc(-c2ccccc2Cl)cc1-c1nn2c(-c3ccco3)nnc2s1 | inconclusive: 7.94 µM [activator, partial curve, poor fit] | 
COc1ccc(Nc2cc(C(=O)NCc3ccccn3)c3ccccc3n2)c(OC)c1 |  | inactive: -5.96%
COc1ccccc1C(=O)NCCC(=O)NC1CCC(C)CC1 (stereo not given) | inconclusive: 25.9 µM [activator, single point] | 
CNC[C@@H](C)NC[C@@H](Cc1ccccc1)NCCc1ccccc1 | inconclusive: 32.6 µM [activator, partial curve, poor fit] | 
CCOC(=O)c1ccc(Nc2ncccc2[N+](=O)[O-])cc1 | inconclusive: 3.66 µM [activator, full curve] | 
CN1CCN(c2ccc(NC(=O)c3cc4ccccc4o3)cc2)CC1 | active: 10.3 µM | 
Cc1nc2c(-c3ccccc3)c(C)nn2c(N)c1-c1ccccc1 | inconclusive: 2.59 µM [activator, full curve] | 
CSc1ccc(/C=N/NC(=O)c2cc(O)cc(O)c2)cc1 | inconclusive: 29.1 µM [activator, partial curve, poor fit] | 
O=c1[nH]c(-c2ccccn2)cc2ccccc12 | inconclusive: 18.4 µM [activator, partial curve, poor fit] | 
CN(Cc1ccc(F)cc1)C(=O)CCc1nnc(-c2ccccc2)o1 | inconclusive: 18.3 µM [activator, partial curve, poor fit] | 
Nc1nc(N2CCN(c3ccccn3)CC2)nc2ccccc12 | inconclusive: 20.6 µM [activator, partial curve, poor fit] | 
COc1cccc(C(=O)NNC(=O)c2cccc(F)c2)c1 | inconclusive: 20.6 µM [activator, partial curve, poor fit] | 
CC1CCc2c(sc(/N=C/c3ccco3)c2C(N)=O)C1 (stereo not given) | inconclusive: 13 µM [activator, partial curve] | 
Cc1cccc(OCC(=O)Nc2ccc3c(c2)OCCO3)c1 | active: 6.51 µM | 
CC1=NOC(=O)/C1=C\c1ccc(-c2cccc(Cl)c2)o1 |  | inactive: -13%
O=C1CC(c2ccccc2)Sc2ccccc2N1 (stereo not given) | inconclusive: 20.6 µM [activator, partial curve, poor fit] | 
O=C1CC(Nc2ccc(N3CCOCC3)cc2)C(=O)N1c1ccccc1 (stereo not given) |  | inactive: 3.07%

SMILES | Potency | activity change, positive = activation
O=C(COc1ccccc1[N+](=O)[O-])Nc1ccc2c(c1)CCC2 | inconclusive: 13 µM [activator, partial curve, poor fit] | 
Cc1nc(Nc2nc3ccccc3o2)nc(C)c1C | inconclusive: 1.64 µM [activator, partial curve] | 
Oc1ccccc1/C=N/NC(=S)NC1CC2CC1C1C=CCC21 (stereo not given) | inconclusive: 23.1 µM [activator, partial curve] | 
O=C(O)c1ccc(N/N=C/c2cccc(C(F)(F)F)c2)cc1 | inconclusive: 9.2 µM [activator, partial curve] | 
O=C(CSc1nnc(-c2csc3c2CCCC3)o1)Nc1ccccc1 | active: 0.58 µM | 
CCCCCCc1nnc(NC(=O)c2ccco2)s1 | inconclusive: 31.6 µM [activator, single point] | 
N#Cc1ccccc1S(=O)(=O)N1CCN(C(=O)C2COc3ccccc3O2)CC1 (stereo not given) |  | inactive: 0.979%
O=[N+]([O-])c1nn(-c2ccc3c(c2)OCCO3)n(O)c1=NCc1ccc(F)cc1Cl | inconclusive: 6.51 µM [activator, partial curve] | 
O=[N+]([O-])c1ccc(CSc2nc3ccccc3[nH]2)cc1 | inconclusive: 6.51 µM [activator, partial curve, poor fit] | 
Cc1ccc(NC(=O)c2ccc3c(c2)OCCO3)nc1 | inconclusive: 0.411 µM [activator, partial curve, poor fit] | 
Cc1cccc(NC(=S)N2CCC(C(=O)c3ccc(F)cc3)CC2)c1C |  | inactive: -0.124%
COc1ccc(CNc2nc(NCc3ccc(OC)cc3)c3ncn(C4CCCC4)c3n2)cc1 | inconclusive: 23.1 µM [activator, partial curve, poor fit] | 
CNc1c(-n2cc(C(=O)OC)c(C(=O)OC)c2C(=O)OC)c(=O)n(C)c(=O)n1C |  | inactive: -3.98%
Cc1ccccc1Nc1nc(N)c2ccccc2n1 | inconclusive: 2.31 µM [activator, partial curve] | 
COc1cc(OC)cc(C(=O)Nc2ccccc2-c2nnn(CC(=O)Nc3cc(C)on3)n2)c1 | inconclusive: 32.6 µM [activator, partial curve, poor fit] | 
COc1cc(C2CC(=O)Nc3n[nH]c(-c4ccccc4)c32)cc(OC)c1OC (stereo not given) | inconclusive: 20.6 µM [activator, partial curve, poor fit] | 
O=C(NCCc1ccccn1)c1ccc(OC(F)F)cc1 | inconclusive: 7.3 µM [activator, partial curve, poor fit] | 
O=C(CCSCc1cccc(Cl)c1)NC1CCCC1 |  | inactive: 0.294%
CCC(=O)C1CCCN(C(=O)CCc2nnc(-c3ccc(C(C)=O)s3)o2)C1 (stereo not given) | inconclusive: 16.4 µM [activator, single point] | 
CCCCOc1ccc(-c2ncc(C(=O)OCC)c(N)n2)cc1 | active: 10.3 µM | 
CSc1ccccc1C(=O)Nc1nc2ccccc2[nH]1 | inconclusive: 18.3 µM [activator, partial curve] | 
Clc1ccc(/C=C/c2ncc[nH]2)c(Cl)c1 | inconclusive: 18.3 µM [activator, partial curve] | 
CS(=O)(=O)c1ccc(Cl)c(NC(=O)c2cc(=O)[nH]c3ccc(S(=O)(=O)N4CCOCC4)cc23)c1 |  | inactive: 1.05%
Cc1cccc(NC(=O)CSc2nccn2Cc2ccco2)c1 | inconclusive: 5.17 µM [activator, single point] | 

SMILES | Potency | activity change, positive = activation
COc1cc(C2C(C#N)=C(N)Oc3cc4c(cc32)OCO4)cc(OC)c1OC (stereo not given) | inconclusive: 5.8 µM [activator, full curve] | 
CCOC(=O)c1cnn(-c2cccc(Cl)c2)c1N | inconclusive: 20.6 µM [activator, partial curve] | 
CC1(C)C(=O)Nc2ccccc2N1C(=O)COC(=O)c1cccnc1Cl |  | inactive: 0.0343%
Cc1ccc2c(CC(=O)NNC(=O)c3ccccc3O)coc2c1 |  | inactive: 0.142%
CC/C(Cc1ccccc1)=N\NC(=O)c1cc([N+](=O)[O-])cc([N+](=O)[O-])c1 |  | inactive: -0.585%
Cc1ccc(SCC(=O)Nc2ccc(N3CCN(C)CC3)c(F)c2)cc1 | inconclusive: 23.1 µM [activator, partial curve, poor fit] | 
COc1ccc(C2CC(c3ccncc3)=NN2c2ccc(S(N)(=O)=O)cc2)cc1 (stereo not given) | active: 20.6 µM | 
C/C(N)=C(/C#N)C(=O)CSc1ccc2c(c1)OCCO2 | inconclusive: 10.3 µM [activator, partial curve, poor fit] | 
Cc1ccccc1Oc1ccc(Oc2ccccc2C)nn1 | inconclusive: 9.2 µM [activator, partial curve] | 
O=C(O)C1CCCCC1C(=O)Nc1ccc(-c2ccccc2)cc1 (stereo not given) | inconclusive: 23.1 µM [activator, partial curve, poor fit] | 
CCC(C)c1ccc(NC(=O)N2CCOCC2)cc1 (stereo not given) | inconclusive: 15.8 µM [activator, single point] | 
O=C(Nc1ccsc1C(=O)O)c1cccc(Oc2ccccc2)c1 | inconclusive: 5.8 µM [activator, single point] | 
Cc1nc(-c2cccc(C(F)(F)F)c2)sc1C(=O)O | inconclusive: 23.1 µM [activator, partial curve, poor fit] | 
CC1CCN(c2oc(-c3ccccc3Cl)nc2C#N)CC1 | inconclusive: 10.3 µM [activator, single point] | 
COc1ccc(CCNC(=O)C(=O)NCC2OCCN2S(=O)(=O)c2cc(F)ccc2F)cc1 (stereo not given) |  | inactive: -5.87%
Cc1ccccc1Nc1c(F)c(F)c(F)c(F)c1C(=O)O |  | inactive: 1.3%
O=C(CSc1nc2cc(Cl)ccc2o1)c1cccs1 | inconclusive: 25.9 µM [activator, partial curve, poor fit] | 
Cc1ccc(NC(=O)c2ccccc2)cc1 | inconclusive: 10.3 µM [activator, partial curve] | 
Cc1ccc(NC(=O)c2cc3ccccc3o2)cc1Cl | inconclusive: 9.2 µM [activator, partial curve] | 
Cc1cc(/C=C2\C(=O)NN(c3ccccc3)C2=O)c(C)n1-c1ccccc1O | inconclusive: 3.66 µM [activator, full curve, poor fit] | 
COc1ccc(CC(=O)Nc2nnc(C(C)C)s2)cc1OC |  | inactive: -12.7%
CCOC(=O)CC(=O)CSc1ncnc2c1nnn2-c1ccc(OC)cc1 |  | inactive: 4.98%
